# Source: PMC3973283
# Chains of the proteins cited; added tags and fusions are not shown. Lines headed by an entry give the natural chain unless they say otherwise; changes in a name come on top.
# UniProt Q96KQ7: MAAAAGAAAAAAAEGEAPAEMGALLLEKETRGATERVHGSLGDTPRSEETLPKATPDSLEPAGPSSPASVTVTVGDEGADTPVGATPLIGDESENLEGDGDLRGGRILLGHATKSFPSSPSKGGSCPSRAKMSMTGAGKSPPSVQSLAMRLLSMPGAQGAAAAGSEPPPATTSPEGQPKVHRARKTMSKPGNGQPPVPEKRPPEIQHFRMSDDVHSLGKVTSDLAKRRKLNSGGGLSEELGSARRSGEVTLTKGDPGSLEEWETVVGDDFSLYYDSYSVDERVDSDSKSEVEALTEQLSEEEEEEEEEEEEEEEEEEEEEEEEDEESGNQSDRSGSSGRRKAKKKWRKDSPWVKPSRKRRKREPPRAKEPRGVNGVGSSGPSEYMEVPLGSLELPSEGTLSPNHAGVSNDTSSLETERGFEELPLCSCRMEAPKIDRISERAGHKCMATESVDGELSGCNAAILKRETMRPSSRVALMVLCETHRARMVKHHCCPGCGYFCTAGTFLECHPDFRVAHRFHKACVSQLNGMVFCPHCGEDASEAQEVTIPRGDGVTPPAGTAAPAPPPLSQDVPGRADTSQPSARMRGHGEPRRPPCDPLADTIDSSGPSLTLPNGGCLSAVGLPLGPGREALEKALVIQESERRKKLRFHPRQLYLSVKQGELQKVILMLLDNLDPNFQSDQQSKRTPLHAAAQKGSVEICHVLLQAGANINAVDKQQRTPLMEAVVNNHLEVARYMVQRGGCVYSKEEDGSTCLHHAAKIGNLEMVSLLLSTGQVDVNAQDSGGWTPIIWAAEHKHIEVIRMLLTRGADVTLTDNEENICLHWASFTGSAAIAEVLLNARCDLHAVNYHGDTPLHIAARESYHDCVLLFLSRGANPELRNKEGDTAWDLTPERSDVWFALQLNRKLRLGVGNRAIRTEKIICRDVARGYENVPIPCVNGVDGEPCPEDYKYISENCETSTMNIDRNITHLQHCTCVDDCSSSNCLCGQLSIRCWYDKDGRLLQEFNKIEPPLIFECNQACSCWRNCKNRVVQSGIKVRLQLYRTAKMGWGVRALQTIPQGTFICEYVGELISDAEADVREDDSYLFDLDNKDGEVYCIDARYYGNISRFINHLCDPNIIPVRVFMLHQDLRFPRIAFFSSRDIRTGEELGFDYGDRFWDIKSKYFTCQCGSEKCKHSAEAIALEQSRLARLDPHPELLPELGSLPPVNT
# These are yes or no findings as the source states them, for the method shown. In cells and extracts the contact can be indirect. Some entries that bind do so weakly or less than the wild type. For some assays here: Where a sequence is shown, tags or fusion partners need not be part of it.
# Key:
# FLAG-Riz1C = molecular target: T1, FLAG-Riz1C (UniProt Q13029); assay: co-IP; HeLa cells co-transfected with FLAG-Riz1C or FLAG-Riz1ΔC and DBD-PR-Set7 or DBD-G9aC; FLAG-immunoprecipitation; Western analysis (Figure 2D)
# T1 sequence: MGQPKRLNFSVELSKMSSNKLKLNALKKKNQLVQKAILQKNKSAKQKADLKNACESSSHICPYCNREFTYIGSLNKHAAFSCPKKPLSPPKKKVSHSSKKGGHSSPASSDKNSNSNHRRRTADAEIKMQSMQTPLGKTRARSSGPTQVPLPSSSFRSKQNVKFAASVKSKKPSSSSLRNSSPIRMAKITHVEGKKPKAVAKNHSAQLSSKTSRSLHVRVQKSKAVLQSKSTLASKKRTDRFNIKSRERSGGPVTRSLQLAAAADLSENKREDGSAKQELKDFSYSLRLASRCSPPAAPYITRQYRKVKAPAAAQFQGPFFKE
# HA-PR-Set7 [1] = molecular target: T2, HA-PR-Set7 (UniProt Q9NQR1); assay: co-IP; HeLa cells co-transfected; nuclear pellet in IP lysis buffer (50 mM Tris-HCl pH 7.0, 150 mM NaCl, 0.5 mM DTT, 1% NP-40); FLAG- or HA-conjugated beads; Western analysis (Figure 1B)
# T2 sequence: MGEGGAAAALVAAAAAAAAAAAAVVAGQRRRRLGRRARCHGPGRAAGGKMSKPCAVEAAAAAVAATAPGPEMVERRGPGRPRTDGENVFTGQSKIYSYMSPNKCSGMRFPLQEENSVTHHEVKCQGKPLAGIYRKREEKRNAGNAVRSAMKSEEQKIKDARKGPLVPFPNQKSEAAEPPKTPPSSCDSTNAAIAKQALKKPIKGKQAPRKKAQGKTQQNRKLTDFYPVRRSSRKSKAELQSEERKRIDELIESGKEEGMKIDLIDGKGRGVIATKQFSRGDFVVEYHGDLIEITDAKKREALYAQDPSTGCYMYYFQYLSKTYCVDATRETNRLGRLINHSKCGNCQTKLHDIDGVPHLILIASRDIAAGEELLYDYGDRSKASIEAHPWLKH
# HA-p53 [2] = molecular target: HA-p53 (UniProt P04637); assay: as above
# FLAG-PR-Set7 = molecular target: T3, FLAG-PR-Set7 (UniProt Q9NQR1); assay: co-IP; HeLa or HCT116 cells transfected with FLAG-PR-Set7 or FLAG-GFP; FLAG-immunoprecipitation; Western analysis of endogenous Riz1 (Figure 6B)
# T3 sequence: T2 sequence
# His-S-PR-Set7 = molecular target: T4, His-S-PR-Set7 (UniProt Q9NQR1); assay: pull-down; S-tag-immunoprecipitation of recombinant His-S-PR-Set7 incubated in vitro with in vitro translated 35S-Riz1 or 35S-G9a; autoradiography (Figure 1D); only the target purified
# T4 sequence: T2 sequence
# HA-PR-Set7 [3] = molecular target: T2, HA-PR-Set7; assay: co-IP; HA-immunoprecipitation of HeLa nuclear extracts expressing HA-PR-Set7 or HA-p53 incubated with in vitro translated 35S-Riz1; SDS-PAGE, autoradiography (Figure 1C)
# HA-p53 [4] = molecular target: HA-p53 (UniProt P04637); assay: as above
substance,measurement,setting,value
DBD-G9aC (SET domain) (from UniProt Q96KQ7 1038-1155) (domain or fragment),binding,FLAG-Riz1C,no binding
ectopic full-length Riz1 (from UniProt Q13029-1 1-1718),binding,HA-PR-Set7 [1],binds
same,binding,HA-p53 [2],no binding
endogenous wild-type Riz1 (from UniProt Q13029-1 1-1718),binding,FLAG-PR-Set7,binds
in vitro translated 35S-G9a (from UniProt Q96KQ7 1-1210),binding,His-S-PR-Set7,no binding
in vitro translated 35S-Riz1 (from UniProt Q13029-1 1-1718),binding,HA-PR-Set7 [3],binds
same,binding,HA-p53 [4],no binding
same,binding,His-S-PR-Set7,binds
